Assay results as given in publication PMC4336329 (PLoS ONE, 2015).
The whole screen tested about 310,000 compounds, of which about 2,200 (0.71%) showed an effect of 50% or more. Effects have a minus sign here. This is one part of the list.

Molecular target: human ether-à-go-go-related gene (hERG) potassium channel (human, UniProt Q12809)
Test: primary screen, population patch clamp on CHO cells stably expressing hERG

Chain of human ether-à-go-go-related gene (hERG) potassium channel (Q12809 whole entry, looked up): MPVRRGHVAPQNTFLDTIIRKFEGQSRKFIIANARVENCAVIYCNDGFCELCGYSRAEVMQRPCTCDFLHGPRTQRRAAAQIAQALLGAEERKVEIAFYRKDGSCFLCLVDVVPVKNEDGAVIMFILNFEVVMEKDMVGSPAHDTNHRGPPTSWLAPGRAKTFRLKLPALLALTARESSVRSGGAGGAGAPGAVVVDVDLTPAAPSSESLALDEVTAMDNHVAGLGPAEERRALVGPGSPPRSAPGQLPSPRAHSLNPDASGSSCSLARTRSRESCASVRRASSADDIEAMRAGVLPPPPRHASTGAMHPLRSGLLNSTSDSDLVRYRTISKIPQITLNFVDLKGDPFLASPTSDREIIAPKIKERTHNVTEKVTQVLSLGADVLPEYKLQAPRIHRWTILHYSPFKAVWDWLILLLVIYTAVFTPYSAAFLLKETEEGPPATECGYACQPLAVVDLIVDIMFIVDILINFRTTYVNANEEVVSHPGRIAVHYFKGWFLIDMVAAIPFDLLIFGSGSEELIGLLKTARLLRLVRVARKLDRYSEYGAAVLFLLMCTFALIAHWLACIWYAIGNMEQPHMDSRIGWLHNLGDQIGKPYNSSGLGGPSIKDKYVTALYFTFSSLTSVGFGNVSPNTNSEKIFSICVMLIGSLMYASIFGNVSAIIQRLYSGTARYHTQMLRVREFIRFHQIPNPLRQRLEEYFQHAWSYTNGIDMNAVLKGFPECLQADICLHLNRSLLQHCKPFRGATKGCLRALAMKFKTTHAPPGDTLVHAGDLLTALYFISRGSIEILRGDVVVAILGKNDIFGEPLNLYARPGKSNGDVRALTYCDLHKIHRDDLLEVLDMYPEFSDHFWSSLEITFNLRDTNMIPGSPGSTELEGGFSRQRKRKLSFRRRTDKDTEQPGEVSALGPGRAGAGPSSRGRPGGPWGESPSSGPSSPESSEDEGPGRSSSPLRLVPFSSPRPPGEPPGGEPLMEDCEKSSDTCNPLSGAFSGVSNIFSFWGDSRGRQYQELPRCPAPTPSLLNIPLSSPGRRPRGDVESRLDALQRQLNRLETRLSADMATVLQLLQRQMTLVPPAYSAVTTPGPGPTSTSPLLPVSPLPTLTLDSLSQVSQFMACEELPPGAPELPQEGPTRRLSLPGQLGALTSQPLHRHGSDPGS

Going from `O=C(NCCCN1CCc2ccccc2C1)C1CCN(S(=O)(=O)N2CCC3(CC2)OCCO3)CC1` to `Cc1ccccc1C(=O)c1cccn1CC(=O)NCCCN1CCCCC1`, the “hERG current change (%, negative = inhibition) at 1uM” value rises from -1.92% to 0.894%.

Going from `Cc1nnc(SCC(=O)NN2C(=O)NC3(CCCCC3)C2=O)s1` to `Cc1ccc2oc(=O)c3cnn(CC(=O)NC4CCCCC4C)c3c2c1` (stereo not drawn), the “hERG current change (%, negative = inhibition) at 1uM” value falls from 11% to 5.74%.

First: CCOC(=O)CNC(=S)n1ncnc1N
Second: CCn1c(CNC(=O)COC)nc2ccccc21
The “hERG current change (%, negative = inhibition) at 1uM” value of the first is higher: 5.41% for the first, 1.78% for the second.

Going from `Cc1ccc(C(=O)N/C(=C\c2ccco2)C(=O)N2CC(C)OC(C)C2)cc1C` (stereo not drawn) to `Cc1ccc(C(=O)NCC(c2cccs2)N(C)C)cc1S(=O)(=O)N1CCOCC1` (stereo not drawn), the “hERG current change (%, negative = inhibition) at 1uM” value rises from 3.54% to 11.2%.

Compared with `COc1cc(/C=N/Nc2nc(=O)[nH]nc2C)ccc1O`, `CCn1cc(/C=N\NC(=O)c2c[nH]c3ccccc23)c(C)n1` is lower in “hERG current change (%, negative = inhibition) at 1uM” value: 7.08% for the first, 4.79% for the second.

Going from `Cc1cccc(N2CCN(C(=O)c3ccc4nc(-c5ccco5)c(-c5ccco5)nc4c3)CC2C)c1` (stereo not drawn) to `O=C(CSc1nnc(-c2ccco2)n1-c1ccccc1)NCc1ccc2c(c1)OCO2`, the “hERG current change (%, negative = inhibition) at 1uM” value falls from 8.47% to -47.7%.

Compared with `CCCCCOC(=O)CSc1nc2c(c(=O)[nH]c(=O)n2C)n1CCc1ccccc1`, `CCCn1c(SCC(=O)N2CCN(c3ccccc3)CC2)nc2ccccc2c1=O` is lower in “hERG current change (%, negative = inhibition) at 1uM” value: 12.6% for the first, -4.8% for the second.

Going from `Cc1ccc(S(=O)(=O)CCC(=O)OCC(=O)N2CCN(S(=O)(=O)c3ccc(Cl)cc3)CC2)cc1` to `COc1ccc(CCN(Cc2cccs2)S(=O)(=O)c2ccc(S(=O)(=O)N3CCCCCC3)cc2)cc1OC`, the “hERG current change (%, negative = inhibition) at 1uM” value rises from 1.35% to 15.6%.

First: COc1cccc(C(=O)C2CCCN(Cc3cccc(C)n3)C2)c1 (stereo not drawn)
Second: COc1ccc(-c2cc(C(=O)NCCN3CCOCC3)c3cc(C(C)C)ccc3n2)cc1
The “hERG current change (%, negative = inhibition) at 1uM” value of the first is lower: -30.1% for the first, 22.1% for the second.

First: O=C1CN=C(c2ccc(Br)cc2)c2c(sc3c2CCCC3)N1CCN1CCCCC1
Second: Cc1ccc2oc3c(c(=O)c2c1)C(c1cccc(Cl)c1)N(CCCN1CCOCC1)C3=O (stereo not drawn)
The “hERG current change (%, negative = inhibition) at 1uM” value of the first is higher: -3.22% for the first, -18.4% for the second.

Compared with `CSc1nc(N)nc(SCCS(=O)(=O)c2ccc(Cl)cc2)c1C#N`, `COC(=O)c1ccccc1NC(=O)CSc1nnc(Cc2ccc(Cl)cc2)o1` is lower in “hERG current change (%, negative = inhibition) at 1uM” value: 3.68% for the first, -0.104% for the second.

First: COc1ccc(N2CCc3c(C)nc4c(OC)cc(OC)cc4c32)c(OC)c1
Second: COc1ccc(OC)c(/C=C/C(=O)c2ccc3c(c2)OCCO3)c1
The “hERG current change (%, negative = inhibition) at 1uM” value of the first is lower: -47.6% for the first, 9.4% for the second.

Going from `COc1ccccc1NC(=O)CSc1nncn1N` to `Cc1ccc2c(c1)sc1nc(=O)n(-c3ccccc3)c(=O)n12`, the “hERG current change (%, negative = inhibition) at 1uM” value falls from 8.74% to 5.98%.

First: O=S(=O)(Nc1ccccn1)c1ccc(C(F)(F)F)cc1Cl
Second: O=[N+]([O-])c1cc(C(F)(F)F)cc([N+](=O)[O-])c1NCc1cccnc1
The “hERG current change (%, negative = inhibition) at 1uM” value of the first is higher: 15.2% for the first, -4.94% for the second.

Compared with `COC(=O)NC1CSCC1OC(=O)c1ccc(Br)cc1` (stereo not drawn), `O=C(NN=C1CCCC1)c1ccc(Cl)cc1` is higher in “hERG current change (%, negative = inhibition) at 1uM” value: -5.41% for the first, 2.23% for the second.

First: COc1ccc(-c2ccc(Nc3ccc(C(=O)N4CCOCC4)cc3)nn2)cc1OC
Second: COc1ccc(/C=C/C(=O)OCC(=O)c2ccc(S(=O)(=O)N3CCCCC3)cc2)cc1OC
The “hERG current change (%, negative = inhibition) at 1uM” value of the first is higher: 15.5% for the first, 12.6% for the second.

Going from `CN(C)c1ccc(-c2cccc(C3CC=CC4C3C(=O)N(Cc3ccccc3)C4c3ccc4ccccc4c3)c2)cc1` (stereo not drawn) to `CN(c1ccccc1)S(=O)(=O)c1cccc(C(=O)Nc2ccc3c(c2)CCC3)c1`, the “hERG current change (%, negative = inhibition) at 1uM” value falls from 14.6% to 11.2%.

Compared with `CCS(=O)(=O)N1CCN(C(=O)c2ccccc2)CC1`, `CC[C@H](C)[C@H](NS(=O)(=O)c1ccc(C)cc1)C(=O)N1CCC(C(=O)N[C@@H](C)C(=O)O)CC1` is higher in “hERG current change (%, negative = inhibition) at 1uM” value: 7.27% for the first, 13.9% for the second.

First: C[N+]1(CCNC(=O)/C=N/O)CCCCC1.[I-]
Second: CCN(CC)C(=O)c1cccc(NC(=O)CC23CC4CC(CC(C4)C2)C3)c1
The “hERG current change (%, negative = inhibition) at 1uM” value of the first is higher: 13.3% for the first, 7.57% for the second.

First: Cc1cc(C)c2c(=O)[nH]n(C3CCCCCC3)c2n1
Second: CC(C)Cc1nc2oc3c(=O)[nH]cnc3c2c2c1CCC2
The “hERG current change (%, negative = inhibition) at 1uM” value of the first is higher: 4.6% for the first, 0.411% for the second.

Compared with `CN(C)C(/C=C/Nc1ccc(O)cc1)=C(C#N)C#N`, `CC(=O)c1ccc(NC(=O)/C=C/c2ccc(C)cc2)cc1` is lower in “hERG current change (%, negative = inhibition) at 1uM” value: 18.1% for the first, 7.02% for the second.

First: Cc1ccc(CSc2nnc3nc(C)cc(C)n23)cc1
Second: Cc1ccc(-c2nc3cc(Cl)ccc3o2)cc1
The “hERG current change (%, negative = inhibition) at 1uM” value of the first is lower: -2.19% for the first, 10.4% for the second.

Going from `Cc1ccc(Cn2nc3c(cc2=O)CCc2ccccc2-3)cc1` to `CC(=O)c1ccc(NC(=O)C(C)n2nc(-c3ccccc3)c3cc(Cl)ccc32)cc1` (stereo not drawn), the “hERG current change (%, negative = inhibition) at 1uM” value falls from 10.2% to 4.55%.

Compared with `CCC1(CC)C(=O)C2=C3C1[C@H](C(=O)OC)CC(C(=O)OC)C[C@H]3n1c(=O)n(-c3ccccc3)c(=O)n1[C@H]2C` (stereo partly drawn), `CCOc1ccc(NC(=S)NC(=O)/C=C/c2ccc(OC)c(OC)c2)c([N+](=O)[O-])c1` is higher in “hERG current change (%, negative = inhibition) at 1uM” value: 11.1% for the first, 13.9% for the second.

Compared with `COc1ccc(NS(=O)(=O)c2cccc(C(=O)NNC(=O)CNC(=O)c3cccc(C)c3)c2)cc1`, `O=C(CCc1ccc(O)c(O)c1)NNC(=S)Nc1ccc(Br)cc1Cl` is higher in “hERG current change (%, negative = inhibition) at 1uM” value: 2.98% for the first, 10.7% for the second.

First: C=C[C@H]1CN2CC[C@H]1C[C@@H]2[C@@H](O)c1ccnc2ccccc12
Second: O=S(=O)(c1ccc(N2CCOCC2)nc1)N(Cc1ccccn1)Cc1ccccn1
The “hERG current change (%, negative = inhibition) at 1uM” value of the first is lower: -4.99% for the first, 6.77% for the second.

Compared with `CSc1nc2ccsc2c(=O)n1-c1cccnc1`, `CCn1c(O)c(/C=N/N2CCOCC2)c(=O)n(CC)c1=S` is higher in “hERG current change (%, negative = inhibition) at 1uM” value: 0.288% for the first, 4.76% for the second.
